Data reported in a collection of fitness landscapes (doi:10.1016/j.celrep.2020.107928).
The full ranking holds about 81,000 sequences; the median of “one-hybrid fitness for binding parS DNA” is about -0.17, and the highest 2% start at about 0.51. Some of the results follow.

B1: Caulobacter ParB omega fusion; a variant is named by its letters at X, in order, B8GW30 (parent)
chain: MESVVVGEPGMSEGRRGLGRGLSALLGEVDAAPAQAPGEQLGGSREAPIEILQRNPDQPRRTFREEDLEDLSNSIREKGVLQPILVRPSPDTAGEYQIVAGERAWRAAQRAGLKTVPIMVRELDDLAVLEIGIIENVQRADLNVLEEALSYKVLMEKFERTQENIAQTIGKSXSHVANXMRLLXLPDEVQSYLVSGELTAXHARAIAAAADPVALAKQIIEGGLSVRETEALARKAPNLSAGKSKGGRPPRVKDTDTQALESDLSSVLGLDVSIDHRGSTGTLTITYATLEQLDDLCNRLTRGI

Variants of: B1
Test: one-hybrid fitness for binding parS DNA (scaled: cognate 1, non-cognate 0); higher = stronger binding
Details: with parS DNA site
In short: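 Caulobacter ParB libraries with four specificity codons randomised were screened by bacterial one-hybrid selection in the E. coli USO strain, using a HIS3 reporter whose site lies 19 bp from the promoter. Selection ran for 48 hours at 37°C on M9 lacking histidine, with 0.1 mM IPTG and 5 mM 3-AT. Plasmids were Illumina-sequenced before and after selection, three replicate libraries were pooled, and variants with under 10 reads were dropped. Fitness is the log change in each variant's read ratio to wild type, rescaled against the cognate and non-cognate sites.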

one-hybrid fitness for binding parS DNA, 1:
RQAG

one-hybrid fitness for binding parS DNA, 0.322:
YWKN

one-hybrid fitness for binding parS DNA, ≤ 0.2:
LNTL
RDRL
NEHI
AQYT
KTSA
MRCC
PWAA
PYKH
KSFT
WEIT
ICHG
NWQY
APKW
NTSK
IYPT
EYSR
THTA
FRPR
NRAY
QRWM
AMFA
AWTC
WTVP
HNMP
GMHF
RNRK
ERPS
YPKA
RIFL
LTYI
SSVS
PGPL
EDLT
GQVY
GHCC
SWWS
FALT
YFSM
ATGG
ADKC
LKCH
ANTC
TETY
YINT
YGPL
GIER
PNKA
PAHR
ASSM
RERW
GPCS
KSSG
DWTV
LNCS
QCRK
ARES
NFKR
TSVL
HMER
PSAQ
CQFG
QGNH
QVPF
LVTK
PFKL
FMVS
LVHE
RRTQ
NHEL
SPTA
ITPW
STCD
RKRP
RHWK
LGQH
DFVC
CTHT
NPKR
FGDR
STGW
RVDE
SNRS
